# In PubChem BioAssay AID504832 (National Center for Advancing Translational Sciences (NCATS), 2011):
# Out of some 310,000 compounds screened, about 18,000 (5.8%) were called active. This list was built around the results that the source calls inconclusive (neither active nor inactive); the mix of calls is not that of the screen. Calls follow the shape of the dose curve; as a rule, active = well fitted inhibition curve with a large enough effect; inconclusive = small, poorly fitted or top-dose-only effect, or another doubt; inactive = no such curve, though single readings can be large or run the other way. Potencies of inconclusive entries are left out as doubtful fits.
# Test: Primary qHTS for delayed death inhibitors of the malarial parasite plastid, 48 hour incubation
# Details: P. falciparum luciferase growth in erythrocytes; series mostly up to 28.7 µM
# Method in brief: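 Parasite viability was followed by luminescence of a genomically integrated firefly luciferase. Cultures held 0.1% parasitemia at 2% hematocrit (final), incubated under 5% CO2 at 37 C.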
# Potency is read from the fitted curve at half-maximal effect; tags tell the direction and shape of the fitted curve.
row,SMILES,Potency
1,O=C(CSc1ncnc2sccc12)N1CCN(C(=O)c2cccs2)CC1,"inconclusive [inhibitor, partial curve, poor fit]"
